# From PubChem BioAssay AID463173 (ICCB-Longwood Screening Facility, Harvard Medical School, 2010)
# The campaign covered roughly 52,000 compounds. About 1,700 (3.3%) were called active. No stated cut-off is given here; in the data, active means survival mostly below about 52% (no sharp cut-off); inactive means mostly above about 56%. This is one part of the list.
# Test system: Wild type
# Test: growth inhibition of S. aureus wild type versus tarO mutant, primary screen, teichoic acid synthesis inhibitors, RN4220, OD600 (AID 463173)
# Conditions: S. aureus RN4220 wild type/DeltatarO growth, OD600, 18 h, active compounds read low, screened at 18.75 µg/mL (by protocol)
row,SMILES,survival
1,COc1ccc(CCNC(=O)Cn2cc(S(=O)(=O)Cc3cccc(Cl)c3)c3ccccc32)cc1OC,inactive: 128%
2,COc1ccc(-c2noc(CSc3nnc(-c4ccc(Cl)cc4)n3C)n2)cc1OC,inactive: 94%
3,CCc1cnc2c(c1SCC(=O)Nc1cc(Cl)ccc1OC)c(=O)n(C)c(=O)n2C,inactive: 73%
4,Cc1ccc(Cl)cc1NC(=O)CSc1nc(C)c(C)c(C)c1C#N,inactive: 86%
5,CC(C)c1ccc(NC(=O)CSc2nc(=O)n(Cc3cccnc3)c3c2CCC3)cc1,inactive: 152%
6,CN1CCN(C(=O)Nc2cccc(Cl)c2)c2cccnc21,inactive: 118%
7,Cc1ccc(CNC(=O)C2CCCN(S(=O)(=O)c3ccc4c(ccn4C)c3)C2)cc1 (stereo not given),inactive: 81%
8,CCCCN(CCCC)CCNC(=O)c1cc(=O)[nH]c2ccc(S(=O)(=O)N3CCCCCC3)cc12,inactive: 129%
9,CCc1ccc(CNC(=O)C2CCN(C(=O)N3CC(CC)Oc4ccc(C)cc43)CC2)cc1 (stereo not given),inactive: 56%
10,Cc1cc(C)c(NC(=O)CSc2ncc(S(=O)(=O)c3ccc(C(C)(C)C)cc3)c(=O)[nH]2)c(C)c1,inactive: 85%
11,O=C(NC1CCCC1)c1ccc2c(c1)N(Cc1ccccc1Cl)C(=O)c1ccccc1S2,inactive: 67%
12,COc1ccccc1Nc1c2c(nc3ccc(NC(=O)c4cccc(F)c4)cc13)CCCC2,inactive: 35%
13,CCc1ccccc1Nc1nn2c(=O)c3ccc(C(=O)NC4CCCCC4)cc3nc2s1,inactive: 71%
14,COc1cc(OC)c(NC(=O)c2c3c(nn2C)-c2ccccc2SC3)cc1Cl,inactive: 117%
15,Cc1ccn2c(=O)c(C(=O)NCc3ccccc3Cl)c(O)nc2c1,inactive: 82%
16,CCOC(=O)c1c(N)n(-c2cccc(C)c2C)c2nc3ccccc3nc12,inactive: 71%
17,COC(=O)C(CCSC)NC(=O)c1cc2c(n(-c3ccc(OC)cc3)c1=O)CC(C)(C)CC2=O (stereo not given),inactive: 82%
18,COc1cccc(C(=O)Nc2ccc(NC(=O)c3ccc(C(C)(C)C)cc3)cc2)c1,inactive: 122%
19,CCOC(=O)CC(N)c1ccc2c(c1)OCO2 (stereo not given),inactive: 111%
20,Cc1ccc(N2CC(NC(=O)C3CCCCC3)CC2=O)cc1C (stereo not given),inactive: 81%
21,COc1cccc2c1Oc1ncccc1N(c1ccc(C(=O)NCc3cccc(C)c3)s1)C2,inactive: 87%
22,CC(=O)Nc1ccc2c(c1)n(C)c(=O)n2C,inactive: 98%
23,CC1(C(=O)Nc2ncc(Cc3ccc(Br)cc3)s2)Cc2ccccc2C(=O)O1 (stereo not given),inactive: 118%

row,SMILES,survival
1,COc1ccc(S(=O)(=O)Nc2cccc(-c3ccc(N4CCCCCC4)nn3)c2)c(OC)c1,inactive: 76%
2,COc1ccc(-c2nc3scc(CCNC(=O)Cc4ccc(F)cc4)n3n2)cc1,inactive: 74%
3,CCC(C)NC(=O)c1ccc2nc(Cc3ccccc3)oc2c1 (stereo not given),inactive: 66%
4,CCN(c1ccccc1)S(=O)(=O)c1nnc(NC(=O)c2ccco2)s1,inactive: 64%
5,Cc1ccccc1-c1nnc(SCC(=O)N2CCCCC2)o1,inactive: 64%
6,CCOc1ccc(NS(=O)(=O)c2ccc3nc(-c4ccccc4)[nH]c3c2)cc1,inactive: 57%
7,COc1cc(OC)c(Nc2c3c(nc4nc(-c5cccs5)nn24)CCCC3)cc1Cl,inactive: 85%
8,O=C(Nc1cc(Cl)cc(Cl)c1)c1ccc(F)c(S(=O)(=O)NCc2ccccc2Cl)c1,inactive: 92%
9,Cc1csc2nc(COc3ccccc3NC(=O)c3ccccc3Cl)cc(=O)n12,inactive: 87%
10,COc1cc(CN(C(=O)COc2ccc(Cl)c(C)c2)c2ccccn2)cc(OC)c1OC,inactive: 78%
11,Cc1ccc(-c2nc(CS(=O)(=O)CC(=O)Nc3cc(C)ccc3C)c(C)o2)cc1,inactive: 137%
12,Cn1c(=O)cc(OCC(=O)NCc2ccc(F)cc2Cl)c2ccccc21,inactive: 117%
13,COc1ccc(CCNC(=O)CCCn2nc(C)c3sc4ccccc4c3c2=O)cc1OC,inactive: 85%
14,Cc1nn(-c2ccccc2)c2sc(C(=O)Nc3cccc(O)c3)cc12,inactive: 43%
15,CC(=O)N1CCN(c2nc(N3CCCCC3)nc(N3CCCCC3)n2)CC1,inactive: 101%
16,Cc1ccc(-n2ncc(C(=O)Nc3c(Cl)cccc3Cl)c2C2CCNCC2)cc1,inactive: 129%
17,CSc1nc2c([nH]c3ccccc32)c(=O)n1-c1ccc(C)cc1,inactive: 76%
18,Cc1ccc2nc(-c3ccc(Cl)c(NC(=O)c4ccc(Br)o4)c3)oc2c1,inactive: 69%
19,O=C(COCc1cc(-c2ccc3c(c2)OCO3)on1)NCc1ccc(F)cc1,inactive: 80%
20,CSc1ccc(CCNC(=O)c2ccc(CS(=O)Cc3ccc(Cl)cc3)o2)cc1 (stereo not given),inactive: 71%
21,O=C(CSc1nc(-c2cccs2)nc2cc(=O)[nH]n12)Nc1ccccc1Cl,inactive: 88%
22,COc1cc(C2CC(=O)Nc3c2c(C)nn3-c2nncc(-c3ccccc3)n2)cc(OC)c1OC (stereo not given),inactive: 89%
23,Cc1ccc(C)c(N2CCN(S(=O)(=O)c3cc(C(=O)Nc4cc(Cl)cc(Cl)c4)ccc3F)CC2)c1,inactive: 85%

row,SMILES,survival
1,Cc1ccc(Cl)cc1NC(=O)c1cc(S(=O)(=O)N2CCCCCC2)cn1C,inactive: 78%
2,CCc1ccc2c(c1)NC(c1cccnc1)=NC(c1ccc(C(C)(C)C)cc1)=N2,inactive: 71%
3,Cc1cccc(-c2nc(CSCC(=O)N3CCN(c4cccc(C)c4C)CC3)c(C)o2)c1,active: 0%
4,CC(=O)Nc1nnc(SCC(=O)N2C(C)CCCC2C)s1 (stereo not given),inactive: 97%
5,O=C(Nc1ccccc1Cl)c1cc2c(-c3ccccc3)nn(-c3ccccc3)c2s1,inactive: 67%
6,CCN(c1ccccc1)c1nnc(NC(=O)Nc2ccc(C)cc2)s1,inactive: 88%
7,O=C(OCc1cc(=O)n2nc(-c3cccs3)sc2n1)c1ccc(F)cc1,inactive: 72%
8,Cc1ccc2nc3c(cc(C#N)c(=O)n3-c3nnc(SCc4ccccc4Cl)s3)c(=O)n2c1,inactive: 104%
9,COc1ccc(/C=C/c2nc(C#N)c(N3CCC(C)CC3)o2)cc1OC,inactive: 98%
10,N#CCCCn1c(=O)oc2ccccc21,inactive: 84%
11,COc1ccc(Nc2ncc3c(n2)CCN(Cc2ccc(Br)s2)C3)c(OC)c1,inactive: 127%
12,CCOc1ccc(C(=O)Nc2cccc(-c3nc4cccnc4s3)c2C)cc1OCC,inactive: 98%
13,CCC(=O)Nc1cc2c(cc1C(=O)CC)OCCO2,inactive: 113%
14,CSc1ccc(CCNC(=O)c2ccc(-n3c(C)cc4c3CCCC4)cc2)cc1,inactive: 83%
15,CC(=O)N1N=C(c2ccc(C)cc2)CC1c1cn(-c2ccccc2)nc1-c1cccs1 (stereo not given),inactive: 132%
16,C=CCn1c(=O)[nH]c2c1c(=O)n(C)c(=O)n2C,inactive: 107%
17,COc1ccc(Br)cc1CNC(=O)C1CCCCN1S(=O)(=O)c1ccc(F)cc1 (stereo not given),inactive: 88%
18,Cc1ccc(OCc2nc3ccccc3n2Cc2ccccc2Cl)cc1,active: 7%
19,CCCNC(=O)CCc1c(C)nc2nc(-c3cc(OC)cc(OC)c3)nn2c1C,inactive: 78%
20,COc1cccc(CNC(=O)CCC(=O)N2Cc3cccc(OC)c3Oc3ncccc32)c1OC,inactive: 66%
21,COc1ccc(NC(=O)c2ccc(COc3ccccc3OC)o2)cc1OC,inactive: 71%
22,CCn1cc(C(=O)NCc2ccccc2)c(=O)c2cc(S(=O)(=O)N3CCCCCC3)ccc21,inactive: 65%
23,O=C(Cc1ccccc1)Nc1c(C(=O)Nc2ccccc2F)oc2ccccc12,inactive: 86%

row,SMILES,survival
1,CCc1ccc(-c2[nH]c3c(c2-c2sc(C)c(C(=O)OC)c2O)c(=O)n(C)c(=O)n3C)cc1,inactive: 85%
2,COc1ccc(N(C)C(=O)CCS(=O)(=O)c2cccc3nsnc23)cc1,inactive: 64%
3,COc1cccc2sc(N(Cc3cccnc3)C(=O)C3COc4ccccc4O3)nc12 (stereo not given),inactive: 135%
4,O=C(Cn1ncc2c(=O)oc3ccccc3c21)NCc1ccc(Cl)cc1,inactive: 90%
5,CC(=O)N1CCCc2cc(S(=O)(=O)N(C)CC(=O)Nc3ccc(Cl)cc3C)ccc21,inactive: 126%
6,CCOc1ccc(-n2c(SCC(=O)NC3CCCC3)nnc2-c2ccoc2C)cc1,inactive: 102%
7,Cc1ccc(Nc2nc3ccccc3c3nncn23)cc1C,active: 3%
8,Cc1c(NC(=O)c2ccccc2F)cccc1-c1nc2cccnc2s1,inactive: 92%
9,COc1ccc(CNC(=O)C(C(C)C)N2Cc3ccccc3C2=O)cc1 (stereo not given),active: -6%
10,CCCN(CCC)C(=O)C1CCN(c2ncnc3c2nc2n3CCCCC2)CC1,inactive: 56%
11,COc1ccc2c(c1)CCc1c(C(=O)Nc3c(C)nn(Cc4ccc(C)cc4)c3C)noc1-2,active: 16%
12,Cc1ccc(C)c(NC(=O)c2cc(S(=O)(=O)NCCC3=CCCCC3)ccc2F)c1,inactive: 64%
13,O=c1c(S(=O)(=O)c2ccccc2)cn(Cc2ccc(F)cc2)c2cc(N3CCCCC3)c(F)cc12,inactive: 74%
14,CCOc1ccc(CCNC(=O)CN(c2ccc(C)cc2)S(=O)(=O)N(C)C)cc1OCC,inactive: 81%
15,CC1Cn2cc(C(=O)Nc3cccc(C(F)(F)F)c3)c(=O)c3c(Cl)ccc(c32)O1 (stereo not given),inactive: 89%
16,COC(=O)c1nnn(CC(=O)Nc2ccc(Br)c(C)c2)c1N,inactive: 80%
17,Cc1ccc(-c2onc(C)c2C)cc1S(=O)(=O)NC1CCCCC1,inactive: 85%
18,CCN(CC)/C(N)=N/c1nc(C)cc(C)n1,inactive: 112%
19,Cc1ccc(-n2c(=O)c3c(c4cc(C)ccc4n3C)n(CC(=O)Nc3cc(C)cc(C)c3)c2=O)cc1,inactive: 119%
20,CCN1CCN(CCCNC(=O)c2ccc3c(c2)sc2nc(-c4ccc(OC)cc4)cn23)CC1,inactive: 82%
21,NCCNC(=O)c1ccco1,inactive: 114%
